# From publication PMC5836133
# The other results are listed elsewhere or left out. At the low end of the ranking the order means little.
# System: T1, GST-NbGlk1(82-244)
# T1 sequence: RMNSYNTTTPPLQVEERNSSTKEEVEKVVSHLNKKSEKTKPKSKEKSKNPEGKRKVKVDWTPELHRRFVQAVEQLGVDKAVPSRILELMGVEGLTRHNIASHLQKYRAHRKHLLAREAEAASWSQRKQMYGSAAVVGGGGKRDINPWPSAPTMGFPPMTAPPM
# Test: protein-binding microarray;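 note: rank-based score ranging −0.5 to +0.5 with E above 0.45 taken as significant binding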
# Details: NbGlk1 is a Golden2-like transcription factor of Nicotiana benthamiana; high values mean tight binding; most listed sequences are background and not binding sites; double strand, one strand shown
row,Sequence,binding signal [E-score]
1,ACCGCAGA,0.0344
2,AGAGCAAA,-0.072
3,ACTGACCA,-0.0421
4,ATATCGGG,0.343
5,AGAAAGTG,0.0661
6,CACCAGAA,-0.13
7,AGCTGTAG,-0.0496
8,ACATCTCG,-0.0226
9,ACCACTAA,0.0835
10,ATGGCACC,-0.203
11,AAAAGCTT,0.0448
12,CACTTGCA,-0.185
13,ACTCAGTA,0.0652
14,ACATCGTC,-0.0707
15,ACTAGTAT,0.131
16,AACACTAA,0.137
17,ATGTCAAG,-0.0327
18,ACGCCCTG,-0.267
19,AATTCACT,0.00975
20,AGCTTGTA,-0.0543
21,AGCCCGAA,-0.149
22,ACCTTTAC,0.0219

row,Sequence,binding signal [E-score]
1,ATAATTTA,0.173
2,ACAGTTTC,-0.0737
3,CAGACACG,-0.148
4,AGTCTACG,-0.216
5,AAGCGAAT,0.291
6,ATCCTTGA,0.218
7,AGACCCCA,-0.264
8,ATCTCGCG,0.333
9,AGATCTCC,0.441
10,AACCGCAA,0.0585
11,ACAGGAGT,-0.124
12,AAGCAGGT,-0.03
13,AAGCCTTA,-0.11
14,ACACCAGC,-0.113
15,ACTAGAGC,-0.15
16,ATCGGTGA,0.229
17,ATTCAATC,0.0912
18,ACGGCTGG,-0.0982
19,ACCTGGGC,-0.144
20,ATATCGAA,0.272
21,ACGTCGTA,0.0632
22,ATCGGCGG,0.0203

row,Sequence,binding signal [E-score]
1,ATTGAGCC,-0.284
2,ATTATGTA,0.215
3,AATGCCCC,-0.183
4,ACTTTCCG,-0.0651
5,CACCTACC,-0.152
6,CACACGGA,0.0177
7,ACTCGCAT,-0.0429
8,CACGGCGG,-0.11
9,ACTCGGCC,-0.128
10,ATCCATGG,0.191
11,AGGCAAAG,-0.148
12,AATAACAT,0.00177
13,AATATCGG,0.371
14,AAACAATA,0.15
15,ACCACCGC,-0.139
16,ATAAACGG,-0.0262
17,AACTCCCC,-0.28
18,ATGATCTC,0.237
19,AATGCGCA,-0.0252
20,AAATTAGC,0.0276
21,CAAAGCGC,-0.198
22,AAGGGACT,-0.254

row,Sequence,binding signal [E-score]
1,CAACTATA,0.0311
2,ATGGTCCA,0.00911
3,ACGACAGA,0.0397
4,ACTTGCGG,-0.0533
5,ACCAGTCT,-0.158
6,ACGTAGGC,-0.189
7,AATCTGAG,0.415
8,AGAGCAAT,0.173
9,AACCCCTT,-0.136
10,ATAGTAAA,0.139
11,ATTCCGAC,0.143
12,CACTCTAG,0.00849
13,ACTTCCCG,-0.196
14,ATTCTATG,0.187
15,AGGACTAA,-0.234
16,ACTCTAGA,0.0375
17,ACCTCATC,-0.0591
18,AGATGCCG,0.044
19,ATCTAAAG,0.176
20,ATATCTGG,0.401
